The source of these data is patent publication US20240124560A1.

This assay addresses MPER peptide PDT-081 (HIV-1). The experiment in a line: BLI (Octet RED96), Fab over biotinylated peptide on streptavidin sensors.

B1: PGZL1_gVgDgJ Fab (Fab, V domains shown)
VH: QVQLVQSGAEVKKPGSSVKVSCKASGGTFSSYAISWVRQAPGQGLEWMGGIIPIFGTANYAQKFQGRVTITADKSTSTAYMELSSLRSEDTAVYYCAREGEGWFGEPLRAFDVWGQGTVITVSS
VL: [about 100 residues left out]STFGQGTRLEIKR
On to B1, for which the dissociation constant Kd came out at 938 nM.

B2: PGZL1_gVgDmJ Fab (Fab, V domains shown)
VH: QVQLVQSGAEVKKPGSSVKVSCKASGGTFSSYAISWVRQAPGQGLEWMGGIIPIFGTANYAQKFQGRVTITADKSTSTAYMELSSLRSEDTAVYYCAREGEGWFGEPLRAFEFWGQGTVITVSS
VL: [about 100 residues left out]STFGQGTRLEIKR
B2: the Kd was found to be 148 nM.
